This is an account of results in the supplement of paper PMC12217912.

First the molecules themselves.
B1: TEV protease; numbered along this chain (parent)
chain: MGESLFKGPRDYNPISSSICHLTNESDGHTTSLYGIGFGPFIITNKHLFRRNNGTLVVQSLHGVFKVKDTTTLQQHLVDGRDMIIIRMPKDFPPFPQKLKFREPQREERICLVTTNFQTKSMSSMVSDTSCTFPSGDGIFWKHWIQTKDGQCGSPLVSTRDGFIVGIHSASNFTNTNNYFTSVPKNFMELLTNQEAQQWVSGWRLNADSVLWGGHKVFMVKPEEPFQPVKEATQL

The variants in this test derive from B1. Briefly: raw area under fraction-flipped curve 0-4 h after induction (AUC4h, not background-subtracted), DNA-recorder readout of cleavage of the substrate (dimensionless); higher = more cleavage of the substrate by the protease variant. The settings on record: temperature: 34 °C; time window: 0-4 h after rhamnose induction.

Some of the results follow. Sequences were assembled here from the parent chain. Values near 0.05 are background.
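Further: Bxb1 expression induced with 0.2% (w/v) L-rhamnose at OD600 near 0.5, cultures sampled hourly, flipped fraction per protease–substrate barcode pair counted by paired-end Illumina sequencing.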

For the variant MGESLFKGPRDYNPISSSICHLTNESDGHTTSLYGIGFGPFIITNKHLFRRNNGTLVVQSLHGVFKVKDTTTLQQHLVDGRDMIIIRMPKDFPPFPQKLKFREPQREERICLVTTNFQTKSMSSMVSDTSCTFPSGDGIFWKHWIQTKDGQCGSPLVSTRDGFIVGIHSASNFTNTNNYFTSVPKNFMELLTNQEAQQWVSGWHLNADSVLWGGHKVFMVKPEEPFQPVKEATQL [R204H], the “area with substrate ENLYFCS” value was 0.0639, the “area with substrate ENLYFES” value turned out to be 0.0815, the “area with substrate ENLYFFS” value was 0.0722 and the “area with substrate ENLYFGS” value was 0.0522. The “area with substrate ENLYFHS” value was determined as 0.0608, the “area with substrate ENLYFIS” value amounted to 0.0577, the “area with substrate ENLYFLS” value worked out at 0.0661 and the “area with substrate ENLYFMS” value was found to be 0.0673. The “area with substrate ENLYFNS” value was determined as 0.0594, the “area with substrate ENLYFPS” value stood at 0.069, the “area with substrate ENLYFSS” value came out at 0.0535 and the “area with substrate ENLYFTS” value was 0.0608. The “area with substrate ENLYFVS” value turned out to be 0.0158, the “area with substrate ENLYFWS” value worked out at 0.0461 and the “area with substrate ENLYFYS” value worked out at 0.077.
As for MGESLFKGPRDYNPISSSICHLTNESDGHTTSLYGIGFGPFIITNKHLFRRNNGTLVVQSLHGVFKVKDTTTLQQHLVDGRDMIIIRMPKDFPPFPQKLKFREPQREERICLVTTNFQTKSMSSMVSDTSCTFPSGDGIFWKHWIQTKDGQCGSPLVSTRDGFIVGIHSASNFTNTNNYFTSVPKNFMELLTNQEAQQWVSGWRLNAESVLWGGHKVFMVKPEEPFQPVKEATQL [D208E], the “area with substrate ENLYFCS” value was found to be 0.0392, the “area with substrate ENLYFES” value is 0.0634, the “area with substrate ENLYFGS” value was found to be 0.0528 and the “area with substrate ENLYFHS” value came out at 0.0496. Moreover, the “area with substrate ENLYFIS” value was found to be 0.0587, the “area with substrate ENLYFMS” value worked out at 0.0949, the “area with substrate ENLYFSS” value worked out at 0.0507 and the “area with substrate ENLYFTS” value was found to be 0.0443. Besides, the “area with substrate ENLYFWS” value was found to be 0.0589.
On to MGESLFKGPRDYNPISSSICHLTNESDGHTTSLYGIGFGPFIITNKHLFRRNNGTLVVQSLHGVFKVKDTTTLQQHLVDGRDMIIIRMPKDFPPFPQKLKFREPQREERICLVTTNFQTKSMSSMVSDTSCTFPSGDGIFWKHWIQTKDGQCGSPLVSTRDGFIVGIHSASNFTNTNNYFTSVPKNFMELLTNQEAQQWVSGWRLNADSVLWGGHKVFMVKPEEPFQPVKENTQL [A232N], for which the “area with substrate ENLYFCS” value was determined as 0.0635, the “area with substrate ENLYFES” value is 0.0672, the “area with substrate ENLYFIS” value turned out to be 0.0388 and the “area with substrate ENLYFKS” value worked out at 0.0507. Besides, the “area with substrate ENLYFPS” value was 0.0574 and the “area with substrate ENLYFWS” value is 0.063.
MGESLFKGPRDYNPISSSICHLTNESDGHTTSLYGIGFGPFIITNKHLFRRNNGTLVVQSLHGVFKVKDTTTLQQHLVDGRDMIIIRMPKDFPPFPQKLKFREPQREERICLVTTNFQTKSMSSMVSDTSCTFPSGDGIFWKHWIQTKDGQCGSPLVSTRDGFIVGIHSASNFTNTNNYFTSVPKNFMELLTNQEAQQWVSGWRLNADSVLWGGHKVFMVKPEEPFQPVKESTQL [A232S]: the “area with substrate ENLYFCS” value worked out at 0.0498, the “area with substrate ENLYFDS” value was determined as 0.042, the “area with substrate ENLYFES” value came out at 0.0661 and the “area with substrate ENLYFFS” value was 0.0606. The “area with substrate ENLYFHS” value is 0.0803, the “area with substrate ENLYFIS” value is 0.0563, the “area with substrate ENLYFMS” value was determined as 0.073 and the “area with substrate ENLYFNS” value amounted to 0.0793. Also, the “area with substrate ENLYFRS” value was found to be 0.053, the “area with substrate ENLYFSS” value turned out to be 0.0693 and the “area with substrate ENLYFWS” value is 0.0524.
MGESLFKGPRDYNPISSSICHLTNESDGHTTSLYGIGFGPFIITNKHLFRRNNGTLVVQSLHGVFKVKDTTTLQQHLVDGRDMIIIRMPKDFPPFPQKLKFREPQREERICLVTTNFQTKSMSSMVSDTSCTFPSGDGIFWKHWIQTKDGQCGSPLVSTRDGFIVGIHSASNFTNTNNYFTSVPKNFMELLTNQEAQQWVSGWRLNADSVLWGGHKVFMVKPEEPFQPVKEHTQL [A232H]: the “area with substrate ENLYFCS” value worked out at 0.0555, the “area with substrate ENLYFDS” value was 0.0613, the “area with substrate ENLYFFS” value was 0.0629 and the “area with substrate ENLYFHS” value was 0.0542. Further, the “area with substrate ENLYFIS” value was found to be 0.0617, the “area with substrate ENLYFLS” value came to 0.0818, the “area with substrate ENLYFMS” value is 0.0639 and the “area with substrate ENLYFPS” value was 0.0553. Further, the “area with substrate ENLYFRS” value was found to be 0.0573, the “area with substrate ENLYFSS” value was found to be 0.0648 and the “area with substrate ENLYFWS” value stood at 0.0397.
Consider MGESLFKGPRDYNPISSSICHLTNESDGHTTSLYGIGFGPFIITNKHLFRRNNGTLVVQSLHGVFKVKDTTTLQQHLVDGRDMIIIRMPKDFPPFPQKLKFREPQREERICLVTTNFQTKSMSSMVSDTSCTFPSGDGIFWKHWIQTKDGQCGSPLVSTRDGFIVGIHSASNFTNTNNYFTSVPKNFMELLTNQEAQQWVSGWRLNADSVLWGGHKVFMVKPEEPFQPVKEGTQL [A232G], for which the “area with substrate ENLYFCS” value worked out at 0.0621, the “area with substrate ENLYFES” value is 0.0651, the “area with substrate ENLYFFS” value worked out at 0.0547 and the “area with substrate ENLYFGS” value stood at 0.0542. For the same variant, the “area with substrate ENLYFHS” value came out at 0.0563, the “area with substrate ENLYFIS” value is 0.061, the “area with substrate ENLYFLS” value was 0.0791 and the “area with substrate ENLYFMS” value amounted to 0.0669. For the same variant, the “area with substrate ENLYFNS” value was 0.0805, the “area with substrate ENLYFPS” value was 0.0534 and the “area with substrate ENLYFVS” value came to 0.0493.
On to MGESLFKGPRDYNPISSSICHLTNESDGHTTSLYGIGFGPFIITNKHLFRRNNGTLVVQSLHGVFKVKDTTTLQQHLVDGRDMIIIRMPKDFPPFPQKLKFREPQREERICLVTTNFQTKSMSSMVSDTSCTFPSGDGIFWKHSIQTKDGQCGSPLVSTRDGFIVGIHSASNFTNTNNYFTSVPKNFMELLTNQEAQQWVSGWRLNADSVLWGGHKVFMVKPEEPFQPVKEATQL [W144S], for which the “area with substrate ENLYFDS” value was 0.0579, the “area with substrate ENLYFES” value stood at 0.0659, the “area with substrate ENLYFFS” value stood at 0.0725 and the “area with substrate ENLYFHS” value amounted to 0.0581. Also, the “area with substrate ENLYFIS” value was found to be 0.0536, the “area with substrate ENLYFKS” value is 0.0744, the “area with substrate ENLYFLS” value came to 0.083 and the “area with substrate ENLYFMS” value was 0.0595. Further, the “area with substrate ENLYFNS” value is 0.0577, the “area with substrate ENLYFPS” value was 0.0575, the “area with substrate ENLYFSS” value amounted to 0.0655 and the “area with substrate ENLYFTS” value came out at 0.0618. Also, the “area with substrate ENLYFVS” value is 0.0655, the “area with substrate ENLYFWS” value is 0.0606 and the “area with substrate ENLYFYS” value was 0.0541.
For MGESLFKGPRDYNPISSSICHLTNESDGHTTSLYGIGFGPFIITNKHLFRRNNGTLVVQSLHGVFKVKDTTTLQQHLVDGRDMIIIRMPKDFPPFPQKLKFREPQREERICLVTTNFQTKSMSSMVSDTSCTFPSGDGIFWKHPIQTKDGQCGSPLVSTRDGFIVGIHSASNFTNTNNYFTSVPKNFMELLTNQEAQQWVSGWRLNADSVLWGGHKVFMVKPEEPFQPVKEATQL [W144P], the “area with substrate ENLYFDS” value stood at 0.0552, the “area with substrate ENLYFFS” value is 0.0511, the “area with substrate ENLYFIS” value stood at 0.0532 and the “area with substrate ENLYFKS” value was 0.0595. Moreover, the “area with substrate ENLYFMS” value came out at 0.0653, the “area with substrate ENLYFPS” value was determined as 0.0675, the “area with substrate ENLYFRS” value was 0.0656 and the “area with substrate ENLYFSS” value worked out at 0.0493. Moreover, the “area with substrate ENLYFTS” value was 0.0474 and the “area with substrate ENLYFVS” value came to 0.0651.
As to MGESLFKGPRDYNPISSSICHLTNESDGHTTSLYGIGFGPFIITNKHLFRRNNGTLVVQSLHGVFKVKDTTTLQQHLVDGRDMIIIRMPKDFPPFPQKLKFREPQREERICLVTTNFQTKSMSSMVSDTSCTFPSGDGIFWKHWIQTKDGQCGSPLVSTRDGFIVGIHSASNFTNTNNYFTSVPKNFMELLTNQEAQQWSSGWRLNADSVLWGGHKVFMVKPEEPFQPVKEATQL [V200S], the “area with substrate ENLYFCS” value came to 0.0591, the “area with substrate ENLYFFS” value worked out at 0.0768, the “area with substrate ENLYFPS” value came to 0.0517 and the “area with substrate ENLYFYS” value was determined as 0.0501.
MGESLFKGPRDYNPISSSICHLTNESDGHTTSLYGIGFGPFIITNKHLFRRNNGTLVVQSLHGVFKVKDTTTLQQHLVDGRDMIIIRMPKDFPPFPQKLKFREPQREERICLVTTNFQTKSMSSMVSDTSCTFPSGDGIFWKHWIQTKDGQCGSPLVSTRDGFIVGIHSASNFTNTNNYFTSVPKNFMELLINQEAQQWVSGWRLNADSVLWGGHKVFMVKPEEPFQPVKEATQL [T192I]: the “area with substrate ENLYFCS” value stood at 0.0642, the “area with substrate ENLYFDS” value was 0.0632, the “area with substrate ENLYFES” value was 0.0643 and the “area with substrate ENLYFFS” value is 0.0769. Moreover, the “area with substrate ENLYFHS” value is 0.0774, the “area with substrate ENLYFIS” value turned out to be 0.0449, the “area with substrate ENLYFKS” value came to 0.0737 and the “area with substrate ENLYFMS” value is 0.0602. Moreover, the “area with substrate ENLYFNS” value is 0.0809, the “area with substrate ENLYFPS” value stood at 0.0743, the “area with substrate ENLYFRS” value was determined as 0.0626 and the “area with substrate ENLYFSS” value was found to be 0.0639. Also, the “area with substrate ENLYFTS” value amounted to 0.067, the “area with substrate ENLYFVS” value came out at 0.0523, the “area with substrate ENLYFWS” value is 0.0619 and the “area with substrate ENLYFYS” value was found to be 0.0561.
